Reference: the supplement of paper PMC12217912
The other results are listed elsewhere or left out. Sequences were assembled here from the parent chain. Inactive controls read about 0.05.

B1: TEV protease; numbered along this chain (parent)
chain: MGESLFKGPRDYNPISSSICHLTNESDGHTTSLYGIGFGPFIITNKHLFRRNNGTLVVQSLHGVFKVKDTTTLQQHLVDGRDMIIIRMPKDFPPFPQKLKFREPQREERICLVTTNFQTKSMSSMVSDTSCTFPSGDGIFWKHWIQTKDGQCGSPLVSTRDGFIVGIHSASNFTNTNNYFTSVPKNFMELLTNQEAQQWVSGWRLNADSVLWGGHKVFMVKPEEPFQPVKEATQL

Variants of: B1
Assay: raw area under fraction-flipped curve 0-4 h after induction (AUC4h, not background-subtracted), DNA-recorder readout of cleavage of the substrate (dimensionless); higher = more cleavage of the substrate by the protease variant
Details: temperature: 34 °C; time window: 0-4 h after rhamnose induction
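Further: Bxb1 expression induced with 0.2% (w/v) L-rhamnose at OD600 near 0.5, cultures sampled hourly, flipped fraction per protease–substrate barcode pair counted by paired-end Illumina sequencing.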

Row | Variant | area with substrate ENLYEQS | area with substrate ENLYKQS | area with substrate ENLYMQS | area with substrate ENLYPQS | area with substrate ENLYRQS | area with substrate ENLYTQS | area with substrate ENLYVQS | area with substrate ENLYWQS | area with substrate ENLYYQS | area with substrate ENLYGQS
1 | L205C | 0.0737 | 0.0663 | 0.0549 | 0.0618 | 0.0619 | 0.0836 | 0.0993 | 0.0443 | 0.0641 | –
2 | G138E | – | – | – | 0.0692 | – | – | 0.0837 | – | 0.052 | 0.0836
3 | T159H | – | – | – | 0.0676 | – | 0.0933 | – | 0.0929 | – | –
4 | K230R | 0.0746 | 0.0517 | 0.0931 | – | 0.0603 | – | 0.117 | – | – | –
5 | C131L | – | 0.0593 | – | – | – | – | – | – | – | –
6 | C131A | – | – | – | 0.0677 | – | – | 0.153 | 0.0874 | – | –
7 | C131G | – | – | – | – | – | – | 0.0933 | – | – | –
8 | P94C | – | – | 0.0847 | – | – | – | 0.121 | 0.0734 | 0.0668 | –
9 | S154E | – | – | – | – | – | – | – | 0.0633 | – | 0.0613
10 | A170N | 0.0306 | 0.0508 | – | – | 0.0703 | 0.0683 | – | 0.0629 | – | 0.0577
11 | F218C | 0.0696 | – | – | 0.0687 | 0.0539 | – | 0.124 | – | – | 0.0572
12 | T71S | – | 0.0577 | – | – | – | – | – | 0.0686 | 0.0518 | –
13 | S171W | – | 0.0615 | – | 0.0644 | – | – | – | – | 0.0625 | 0.0774
14 | M188Q | – | 0.0412 | 0.0805 | 0.0552 | 0.0374 | – | – | – | 0.0606 | 0.0699
15 | L73A | – | 0.0451 | 0.0424 | – | – | – | – | – | – | 0.0603
16 | F226P | 0.0711 | – | – | – | – | 0.0793 | 0.125 | 0.074 | 0.072 | –
17 | L190I | 0.0699 | 0.0984 | 0.0777 | 0.0753 | – | 0.0896 | – | – | – | –
18 | L190V | 0.0752 | 0.0671 | – | – | – | 0.094 | 0.123 | – | – | –
19 | P228T | – | 0.075 | – | – | – | 0.0865 | 0.113 | – | 0.0527 | –
20 | P228I | – | 0.0706 | – | – | – | – | – | – | – | –
21 | I167Q | 0.0558 | 0.0942 | 0.0674 | – | – | – | 0.0937 | 0.063 | – | 0.0517
22 | Y179G | 0.0525 | – | 0.0685 | 0.0543 | – | – | – | – | – | 0.0449
23 | F95Q | – | – | – | – | – | – | – | – | 0.0494 | 0.0484
24 | L99A | – | 0.0695 | 0.0847 | 0.0688 | – | – | 0.0764 | – | 0.0651 | 0.0666
25 | N178P | – | – | 0.0557 | 0.0602 | 0.0585 | 0.0579 | – | 0.0577 | – | 0.0697
26 | Q74N | – | 0.0706 | – | – | – | – | – | – | – | 0.0688

Row | Variant | area with substrate ENLYEQS | area with substrate ENLYKQS | area with substrate ENLYMQS | area with substrate ENLYPQS | area with substrate ENLYRQS | area with substrate ENLYTQS | area with substrate ENLYVQS | area with substrate ENLYWQS | area with substrate ENLYYQS | area with substrate ENLYGQS
27 | Q74T | – | 0.0603 | – | – | – | – | – | – | – | 0.0645
28 | W203Q | 0.0653 | – | 0.0621 | – | – | 0.0579 | – | 0.0538 | – | 0.0703
29 | Q97V | – | – | – | 0.066 | – | – | – | – | – | –
30 | I110A | – | – | – | – | 0.055 | – | 0.0956 | – | – | 0.0515
31 | T174M | 0.0728 | – | 0.0843 | 0.0748 | 0.0635 | – | 0.0513 | – | 0.0738 | 0.063
32 | V210A | 0.0739 | 0.0454 | – | – | – | – | – | 0.0669 | – | –
33 | A196C | – | – | – | – | – | – | – | – | 0.0525 | –
34 | D79Y | – | 0.0569 | – | 0.057 | – | – | 0.0976 | 0.0927 | – | –
35 | F117T | – | – | – | – | – | – | 0.122 | – | 0.0701 | –
36 | E231S | – | 0.0469 | 0.1 | 0.0378 | – | – | – | 0.0509 | – | 0.0671
37 | L191W | 0.06 | 0.0776 | 0.05 | 0.0594 | 0.0373 | – | 0.1 | 0.0698 | – | 0.0531
38 | W199K | 0.0505 | 0.0691 | – | – | – | – | – | 0.0778 | – | 0.0586
39 | W199A | 0.0556 | 0.0691 | 0.0647 | 0.0702 | 0.0445 | – | – | 0.0616 | – | –
40 | S158T | 0.0473 | – | 0.0736 | 0.0625 | – | – | – | – | – | 0.045
41 | E223P | 0.0645 | 0.0579 | 0.0312 | – | – | 0.0767 | 0.11 | 0.066 | 0.0791 | 0.0686
42 | V165Q | 0.0725 | – | – | – | 0.0347 | – | 0.0377 | 0.0532 | 0.047 | –
43 | V165K | 0.0566 | 0.0609 | 0.0416 | 0.0525 | 0.0433 | – | 0.0407 | 0.0476 | – | 0.0322
44 | V165H | – | – | – | 0.0549 | – | – | – | 0.0545 | – | –
45 | Y34P | – | 0.076 | 0.0578 | – | 0.0512 | – | 0.0418 | – | 0.0577 | 0.067
46 | N193V | – | – | – | – | 0.047 | – | – | – | 0.0607 | –
47 | V157C | – | – | 0.103 | – | – | 0.0905 | 0.109 | – | 0.046 | 0.0696
48 | V58C | – | 0.0641 | 0.0723 | 0.0644 | 0.0649 | 0.0726 | 0.116 | 0.0733 | 0.0794 | 0.0708
49 | F173V | 0.0621 | 0.0949 | 0.0704 | 0.0778 | 0.0669 | 0.064 | 0.1 | 0.0663 | – | 0.0582
50 | F163G | – | – | 0.0646 | – | – | – | – | – | – | –
51 | F163C | 0.0717 | 0.0358 | 0.106 | 0.0488 | – | 0.097 | – | – | – | 0.0844
52 | C111E | – | – | – | – | – | – | – | 0.0854 | – | 0.0495

Same assay, conditions: temperature: 34 °C; time window: 0-4 h after rhamnose induction

Row | Variant | area with substrate ENLYHQS | area with substrate ENLYIQS | area with substrate ENLYNQS | area with substrate ENLYQQS | area with substrate ENLYLQS | area with substrate ENLYSQS
53 | T159H | 0.0684 | 0.114 | 0.0649 | 0.0612 | – | –
54 | K230R | 0.0643 | – | 0.0942 | – | – | –
55 | C131G | – | 0.092 | 0.0568 | 0.0576 | 0.0708 | –
56 | P94C | 0.055 | – | – | – | – | –
57 | S154E | 0.0551 | – | – | 0.0745 | – | 0.0733
58 | A170N | – | 0.0633 | 0.0719 | – | – | –
59 | F218C | 0.059 | 0.094 | 0.0633 | – | – | 0.0595
60 | T71S | 0.0677 | – | 0.0605 | – | – | 0.0538
61 | S171W | – | – | 0.0602 | 0.0924 | – | –
62 | M188Q | 0.0732 | – | – | – | – | 0.0906
63 | L73A | 0.0583 | – | – | 0.0862 | – | 0.0599
64 | F226P | 0.0516 | 0.102 | 0.0623 | 0.0544 | 0.0834 | 0.1
65 | L190I | – | – | 0.065 | 0.0503 | – | 0.0758
66 | L190V | 0.117 | 0.124 | 0.0588 | – | 0.134 | 0.0753
67 | P228T | 0.0792 | 0.0821 | 0.0777 | – | 0.0824 | –
68 | P228I | – | – | 0.0793 | – | – | –
69 | I167Q | 0.0474 | – | – | – | 0.129 | 0.0659
70 | Y179G | – | – | 0.0439 | 0.0595 | – | 0.0441
71 | L99A | 0.0709 | 0.12 | 0.069 | – | – | –
72 | N178P | 0.0613 | – | – | – | – | 0.0704
73 | Q74N | 0.0628 | – | – | – | – | –
74 | Q74T | 0.0667 | – | 0.0649 | – | 0.0633 | –

Row | Variant | area with substrate ENLYHQS | area with substrate ENLYIQS | area with substrate ENLYNQS | area with substrate ENLYQQS | area with substrate ENLYLQS | area with substrate ENLYSQS
75 | W203Q | 0.0634 | – | 0.0675 | – | – | 0.0548
76 | I110A | – | 0.104 | 0.0621 | – | – | –
77 | T174M | 0.0659 | – | 0.095 | 0.0675 | – | –
78 | V210A | – | – | 0.0703 | – | – | –
79 | A196C | 0.0645 | – | – | – | – | –
80 | D79Y | 0.0764 | 0.126 | 0.0599 | – | 0.0938 | –
81 | F117T | 0.0545 | 0.157 | – | 0.0555 | – | 0.0658
82 | E231S | 0.0722 | 0.0796 | 0.0657 | – | 0.0651 | 0.0783
83 | L191W | 0.0643 | 0.0889 | 0.054 | 0.0638 | – | –
84 | W199K | 0.0606 | – | 0.0572 | – | – | 0.0712
85 | W199A | – | 0.0642 | – | 0.0609 | – | –
86 | E223P | – | 0.129 | 0.0651 | 0.0671 | – | –
87 | V165Q | 0.0509 | – | – | – | 0.0686 | –
88 | V165K | 0.0602 | – | 0.0669 | – | – | –
89 | V165H | 0.046 | – | – | – | – | 0.064
90 | Y34P | 0.0582 | 0.0369 | 0.0548 | – | – | 0.0036
91 | V157C | 0.0449 | 0.114 | 0.061 | – | – | –
92 | V58C | 0.0692 | – | 0.0655 | – | – | 0.0749
93 | F173V | 0.0566 | 0.0993 | 0.0895 | 0.0633 | – | –
94 | F163C | 0.071 | – | – | – | – | 0.0771
95 | C111E | 0.0751 | 0.105 | – | 0.0707 | 0.0938 | –
